Source: article PMC9677703
These are yes or no findings as the source states them, for the method shown. In cells and extracts the contact can be indirect. Some binding calls cover weakened binding; strength is not graded here. Tags and fused reporters may be left off the sequences shown.

Chains of the proteins cited; added tags and fusions are not shown.
UniProt Q9NYF8: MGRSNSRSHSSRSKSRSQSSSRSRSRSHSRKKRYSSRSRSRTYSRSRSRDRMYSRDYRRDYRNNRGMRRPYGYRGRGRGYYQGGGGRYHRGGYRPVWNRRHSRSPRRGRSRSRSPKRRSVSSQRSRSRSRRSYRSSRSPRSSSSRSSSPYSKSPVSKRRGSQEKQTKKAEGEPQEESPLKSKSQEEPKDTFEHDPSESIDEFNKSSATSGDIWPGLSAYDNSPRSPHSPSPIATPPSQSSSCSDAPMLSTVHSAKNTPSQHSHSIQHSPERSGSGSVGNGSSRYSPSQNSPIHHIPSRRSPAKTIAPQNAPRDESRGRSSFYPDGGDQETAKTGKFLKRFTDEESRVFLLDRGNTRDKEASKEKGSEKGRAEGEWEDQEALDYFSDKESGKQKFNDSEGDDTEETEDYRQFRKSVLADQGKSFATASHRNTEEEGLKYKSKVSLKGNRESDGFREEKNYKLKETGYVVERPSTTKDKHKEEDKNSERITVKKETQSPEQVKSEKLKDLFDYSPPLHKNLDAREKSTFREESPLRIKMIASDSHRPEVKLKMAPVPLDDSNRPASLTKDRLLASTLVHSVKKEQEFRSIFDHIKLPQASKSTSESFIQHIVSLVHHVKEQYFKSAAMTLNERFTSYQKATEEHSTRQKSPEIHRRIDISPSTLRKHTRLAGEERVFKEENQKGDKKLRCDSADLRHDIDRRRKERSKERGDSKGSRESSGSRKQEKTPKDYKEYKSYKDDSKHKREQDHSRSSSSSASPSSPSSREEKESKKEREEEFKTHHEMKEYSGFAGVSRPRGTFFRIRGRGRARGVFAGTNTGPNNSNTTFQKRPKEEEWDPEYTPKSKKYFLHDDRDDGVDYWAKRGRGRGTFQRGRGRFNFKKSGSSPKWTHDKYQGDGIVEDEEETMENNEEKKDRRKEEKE

Target: T1, recombinant His-tagged FGF12 (UniProt P61328)
T1 sequence: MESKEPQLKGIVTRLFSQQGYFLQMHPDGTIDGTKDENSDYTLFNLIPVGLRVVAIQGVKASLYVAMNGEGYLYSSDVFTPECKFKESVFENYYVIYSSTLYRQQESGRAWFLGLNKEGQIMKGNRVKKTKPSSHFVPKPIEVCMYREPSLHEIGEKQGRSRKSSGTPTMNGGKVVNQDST
Experiment: pull-down; recombinant FGF12-His or FGF12Δ-His bound to Ni Sepharose (1 h, 4 °C), incubated with U2OS cell lysate (0.15 M KCl, 40 mM Tris, 1% NP-40, 1 mM EDTA, pH 7.2) overnight at 4 °C; western blotting; also with nuclease-treated lysate (no effect); only the target purified

binding: binds
Substance: Bcl-2-associated transcription factor 1 (from UniProt Q9NYF8 1-920)
